PubChem BioAssay AID686979 (National Center for Advancing Translational Sciences (NCATS), 2013)
Screen size: about 420,000 compounds; about 50,000 (12%) were called active. This list was built around the results that the source calls inconclusive (neither active nor inactive); the mix of calls is not that of the screen. Calls follow the shape of the dose curve; as a rule, active = well fitted inhibition curve with a large enough effect; inconclusive = small, poorly fitted or top-dose-only effect; inactive = flat fitted curve, though single readings scatter. No potency is given beside an inconclusive call; the fits are too rough.

Experiment: qHTS for Inhibitors of human tyrosyl-DNA phosphodiesterase 1 (TDP1): qHTS in cells in presence of CPT; also: nearly all actives have a fitted effect of over 55% in size
Details: chicken DT40 Tdp1-/-;hTDP1 cells + 20 nM CPT, ATP luminescence, 48 h; activity change, negative = growth inhibition: at 46.2 µM (top of the series)
Outline: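 Cell growth measured by CellTiter-Glo luminescence after a minimum 48 h, 37 C compound exposure with 20 nM CPT in Tdp1-knockout DT40 cells stably expressing hTDP1, seeded 400/well; qHTS titration format.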
% is scaled to controls: 0 for no effect and ±100 for the full control effect; potency is read from the fitted curve at half-maximal effect; tags tell the direction and shape of the fitted curve.

Question: With `COc1cccc(OC)c1OCCCCN1CCCCC1` as the compound, how does the “activity change, negative = growth inhibition” value read?
Answer: inactive: -7.08%

Question: Which Potency does the source give for `CCCCCCN(C(=O)CCCN1C(=O)NC(c2ccc(-c3ccccc3)cc2)C(C(=O)OCc2ccccc2)=C1C)C(C)C(=O)NCCCC` (stereo not drawn) here?
Answer: inconclusive [inhibitor, single point]

Question: With `COc1ccccc1-c1nc(SCC(=O)Nc2ccc(C)c(C)c2)n[nH]1` as the compound, how does the Potency read?
Answer: active: 23.1 µM

Question: Which Potency does the source give for `O=C(O)CN1CCNCCN(CC(=O)O)CCNCC1` here?
Answer: inconclusive [inhibitor, single point]

Question: Which Potency does the source give for `Cc1ccccc1OC(=O)Cn1c(C(F)(F)F)nc2ccccc21` here?
Answer: inconclusive [inhibitor, single point]

Question: For `Fc1ccc(-n2ncc3c(N4CCN(c5ccccc5F)CC4)ncnc32)cc1`, which “activity change, negative = growth inhibition” value is on record?
Answer: inactive: -8.45%

Question: For `CN1C(CC(=O)Nc2ccc(Cl)cc2Cl)c2ccccc2CC1(C)C` (stereo not drawn), which Potency is on record?
Answer: active: 10.3 µM

Question: For `NC(=S)Cc1nc(-c2ccccc2)cs1`, which Potency is on record?
Answer: inconclusive [inhibitor, single point]

Question: Which Potency does the source give for `COc1cc2cc(CN(CCc3ccccc3C)C(=S)NCCCN(C)C)c(=O)[nH]c2cc1OC` here?
Answer: inconclusive [inhibitor, single point]

Question: For `Cc1sc2ncn(CC(=O)N(C)c3cccc(C(F)(F)F)c3)c(=O)c2c1S(=O)(=O)N1CCN(c2ncccn2)CC1`, which “activity change, negative = growth inhibition” value is on record?
Answer: inactive: -9.34%

Question: With `CCCC[C@@H]1C[C@H]1[C@@H](NC(=O)c1ccco1)c1ccccc1C(F)(F)F` as the compound, how does the Potency read?
Answer: inconclusive [inhibitor, single point]

Question: Which Potency does the source give for `CCN(CC)C(=O)COc1ccc(-c2nnc(Nc3ccc(OC)c(C(=O)NC)c3)c3ccccc23)cc1` here?
Answer: inconclusive [inhibitor, single point]

Question: For `N#C/C(=C/c1ccc(O)c([N+](=O)[O-])c1)C(=O)Nc1ccccc1`, which Potency is on record?
Answer: active: 4.11 µM

Question: For `COc1cccc(C(=O)Nc2ncc3c(n2)CC(C)(C)CC3=O)c1`, which Potency is on record?
Answer: inconclusive [inhibitor, single point]

Question: With `COc1cc(-c2ccc3oc(-c4ccsc4)c(C#CC4(O)CCCCC4)c3c2)cc(OC)c1OC` as the compound, how does the Potency read?
Answer: inconclusive [inhibitor, single point]

Question: For `CC(C)C(O)(C#CCN1CCCCC1)c1ccccc1` (stereo not drawn), which “activity change, negative = growth inhibition” value is on record?
Answer: inactive: -5.23%

Question: With `CCOc1cc(/C=N/n2cnnc2)ccc1OCC(=O)Nc1ccccc1OC` as the compound, how does the “activity change, negative = growth inhibition” value read?
Answer: inactive: -7.97%

Question: For `NCc1csc(NC(=O)Nc2cccc(Cl)c2)n1`, which Potency is on record?
Answer: inconclusive [inhibitor, single point]

Question: With `O=C(NCCC(=O)N1CCC2(CC1)NCCc1[nH]cnc12)c1ccc(Br)cc1` as the compound, how does the “activity change, negative = growth inhibition” value read?
Answer: inactive: 14.7%

Question: For `O=C(Nc1cccnc1)c1ccc(S(=O)(=O)N2CCCCCC2)cc1`, which “activity change, negative = growth inhibition” value is on record?
Answer: inactive: -27.2%

Question: With `Cc1cc(=O)oc2c3c(ccc12)OCN(Cc1ccc(Cl)cc1)C3` as the compound, how does the Potency read?
Answer: inconclusive [inhibitor, single point]

Question: With `Clc1cccc(-c2cc3nc(NCCOc4ccccc4)ccn3n2)c1` as the compound, how does the “activity change, negative = growth inhibition” value read?
Answer: inactive: -2.29%

Question: For `O=C(Nc1ccccn1)C1CCN(c2ncnc3c2nc2n3CCCCC2)CC1`, which Potency is on record?
Answer: active: 2.31 µM

Question: Which Potency does the source give for `COC(=O)c1c(C)[nH]c(C(=O)OC(C)C(=O)N(C)C2CCCCC2)c1C` (stereo not drawn) here?
Answer: inconclusive [inhibitor, single point]

Question: Which Potency does the source give for `COc1ccc(-c2cc(=O)oc3c(C)c(O)ccc23)cc1` here?
Answer: active: 7.31 µM

Question: For `C/C=C(\NNC(C)=O)c1ccc(O)cc1`, which Potency is on record?
Answer: inconclusive [inhibitor, single point]

Question: Which Potency does the source give for `CCOc1ccccc1/C=C/C(=O)N1CCN(C(=O)c2ccco2)CC1` here?
Answer: inconclusive [inhibitor, single point]

Question: For `CCOC(=O)Cn1nc(C)cc1NC(=O)c1cc(OC)c(OC)c(OC)c1`, which Potency is on record?
Answer: inconclusive [inhibitor, single point]

Question: Which Potency does the source give for `COc1cc(CSc2nnnn2-c2ccc(C)cc2)cc(OC)c1OC` here?
Answer: active: 5.8 µM

Question: Which Potency does the source give for `c1ccc(COc2ccccc2CNC2CCCC2)cc1` here?
Answer: inconclusive [inhibitor, single point]

Question: With `COc1ccc(S(=O)(=O)n2nc(OCc3cccs3)cc2N)cc1` as the compound, how does the activity change, negative = growth inhibition read?
Answer: inconclusive: -34.5% [inhibitor]

Question: For `CCn1nc(C)c2c(-c3ccccc3)cc(=O)n(C(C)C(=O)NCCc3ccccc3)c21` (stereo not drawn), which Potency is on record?
Answer: active: 18.4 µM

Question: For `Cc1cccc(CNc2nc(-c3cccnc3)nc3ccccc23)c1`, which Potency is on record?
Answer: inconclusive [inhibitor, single point]

Question: With `c1ccc(C(Cc2nc(-c3ccncc3)no2)c2ccccc2)cc1` as the compound, how does the Potency read?
Answer: active: 18.4 µM

Question: With `O=S1(=O)CCN(CCCc2ccccc2)CC1` as the compound, how does the “activity change, negative = growth inhibition” value read?
Answer: inactive: -0.44%

Question: With `Cc1ccc(-c2ccc(/C=N\n3cnnc3)o2)c(Br)c1` as the compound, how does the “activity change, negative = growth inhibition” value read?
Answer: inactive: 29.9%

Question: With `COc1cc(NC(=O)C2=C(N3CCOCC3)/C(=C\c3ccc(Cl)cc3Cl)CC2)cc(OC)c1OC` as the compound, how does the Potency read?
Answer: active: 13 µM

Question: For `COc1cc(N)c(Cl)cc1C(=O)OCC(=O)c1cccs1`, which “activity change, negative = growth inhibition” value is on record?
Answer: inactive: 20.7%

Question: For `Cc1cccc(CCNC(=O)c2c[nH]c3ccc(S(=O)(=O)Nc4ccccc4F)cc3c2=O)c1`, which Potency is on record?
Answer: active: 11.6 µM

Question: Which “activity change, negative = growth inhibition” value does the source give for `CC(C)c1ccc(S(=O)(=O)c2cc3cc(Br)ccc3oc2=O)cc1` here?
Answer: inactive: -14.8%

Question: With `Cc1ccn(CC(=O)N2N=C(C(F)F)CC2(O)C(F)F)n1` (stereo not drawn) as the compound, how does the “activity change, negative = growth inhibition” value read?
Answer: inactive: -25.3%

Question: For `O=C(NCCc1ccc(Cl)cc1)c1ccc2c(c1)N(Cc1cccc(Cl)c1)C(=O)c1ccccc1S2(=O)=O`, which Potency is on record?
Answer: inconclusive [inhibitor, full curve]

Question: Which Potency does the source give for `CCc1nnc(NC(=O)CN2C(=O)/C(=C/c3cc(OC)c(OC)c(OC)c3)SC2=S)s1` here?
Answer: inconclusive [inhibitor, single point]

Question: For `COc1ccnc(N2CCN(c3ccccc3)CC2)c1C#N`, which Potency is on record?
Answer: inconclusive [inhibitor, single point]

Question: Which Potency does the source give for `Fc1ccccc1Nc1ncnc2c1nc1n2CCCCC1` here?
Answer: inconclusive [inhibitor, single point]

Question: With `CCC1CCCCN1C(=O)Cn1c(=O)n(CCCCCC(=O)NCc2ccccc2Cl)c(=O)c2sccc21` (stereo not drawn) as the compound, how does the Potency read?
Answer: inconclusive [inhibitor, single point]

Question: With `O=c1cc(-c2ccccc2Cl)oc2ccc([N+](=O)[O-])c(O)c12` as the compound, how does the Potency read?
Answer: inconclusive [inhibitor, single point]

Question: For `COC(=O)c1ccccc1OCc1cccc(C)n1`, which “activity change, negative = growth inhibition” value is on record?
Answer: inactive: 0.225%
